In the supplement of paper PMC6206098:
± gives the uncertainty stated by the source. Shown are siRNA guide strands that differ only in the seed, positions 2 to 7.

Columns and labels:
H460 = experiment: cell viability relative to lipid-only control; higher = less toxic; conditions: concentration: 10 nM; 96 h; Homo sapiens
Method: (§1)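 Arrayed screen of 4096 siRNA duplexes, each carrying one of all possible 6mer seeds at guide-strand positions 2-7 in a fixed neutral 19mer scaffold (constant flanks: U at position 1, then ACAUGUAAACCA, plus a 3' AA overhang). The passenger strand is 2'-O-methylated at positions 1-2 so only the guide strand loads into RISC. Duplexes were reverse-transfected at 10 nM with RNAiMAX in triplicate in 384-well plates; viability was read by CellTiter-Glo ATP content 96 h after transfection. Values are % viability normalised to lipid-only wells (HeyA8, H460, M565) or to siNT1 (3LL).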

HeyA8 = experiment: as above; conditions: concentration: 10 nM; 96 h; Homo sapiens
Method: as §1

M565 = experiment: as above; conditions: concentration: 10 nM; 96 h; Mus musculus
Method: as §1

3LL = experiment: cell viability relative to siNT1 control; HeyA8 human ovarian and H460 human lung cancer; M565 mouse liver and 3LL mouse lung cancer; siNT1 is a non-toxic control siRNA; higher = less toxic; conditions: concentration: 10 nM; 96 h; Mus musculus
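Wherever cell viability relative to lipid-only control is given: reverse lipid transfection in 384-well plates, in triplicate, of duplexes on a non-toxic 19mer backbone with passenger strand 2′-O-methylated at positions 1 and 2, luminescence viability read-out.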
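Wherever cell viability relative to siNT1 control is given: Luminescence-based viability of cells reverse transfected in 384-well plates with lipid-complexed siRNAs built on a non-toxic 19mer backbone whose passenger strand carries 2′-O-methyl groups at positions 1 and 2, triplicates.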

| Sequence | cell viability (H460) [%] | cell viability (HeyA8) [%] | cell viability (M565) [%] | cell viability (3LL) [%] |
| --- | --- | --- | --- | --- |
| UGUGUAGACAUGUAAACCAAA | 55.3 ± 7.6 | 57.5 ± 9.8 | 18.6 ± 9.8 | 30.7 ± 11 |
| UCAAGUCACAUGUAAACCAAA | 55.7 ± 5.9 | 55.6 ± 10 | 20.6 ± 0.5 | 48.4 ± 9.8 |
| UUGUAUUACAUGUAAACCAAA | 69.8 ± 10 | 68.5 ± 3 | 74.1 ± 21 | 72.7 ± 4 |
| UAUUGCUACAUGUAAACCAAA | 56.9 ± 4.4 | 38.8 ± 7.5 | 41.9 ± 4.4 | 70.5 ± 4.2 |
| UUUAAGUACAUGUAAACCAAA | 63.8 ± 7.9 | 34.8 ± 8.1 | 69.3 ± 11 | 88.1 ± 7.4 |
| UAUAUAUACAUGUAAACCAAA | 86.8 ± 14 | 91.7 ± 12 | 101 ± 6.3 | 42.5 ± 7.9 |
| UGCAAUUACAUGUAAACCAAA | 63.6 ± 5.8 | 54 ± 1.8 | 56.6 ± 6.8 | 68.9 ± 16 |
| UCAUAGCACAUGUAAACCAAA | 22.6 ± 1.2 | 16.6 ± 0.94 | 3.78 ± 1.1 | 12.4 ± 2.2 |
| UCCCUACACAUGUAAACCAAA | 63.6 ± 7.3 | 80.1 ± 7.6 | 61.8 ± 14 | 82.9 ± 18 |
| UGUGAUGACAUGUAAACCAAA | 47.6 ± 3.7 | 25.8 ± 8.4 | 34.3 ± 9.7 | 90 ± 5.2 |
| UCAUUCGACAUGUAAACCAAA | 37.8 ± 2.9 | 70.7 ± 2.1 | 51.1 ± 9.5 | 90.3 ± 14 |
| UGGCUUUACAUGUAAACCAAA | 63.8 ± 10 | 38.4 ± 0.68 | 24.2 ± 4.1 | 79.8 ± 8.1 |
| UAGGCCCACAUGUAAACCAAA | 54.9 ± 9.2 | 51.3 ± 3.2 | 16.2 ± 2.9 | 20.8 ± 5.5 |
| UAGACUCACAUGUAAACCAAA | 61.3 ± 5.2 | 66.6 ± 5.6 | 18.7 ± 5.5 | 36.1 ± 4 |
| UGGGUCAACAUGUAAACCAAA | 34.6 ± 7.5 | 33.1 ± 6.5 | 16.8 ± 1.8 | 54.8 ± 20 |
| UGAGAAAACAUGUAAACCAAA | 88 ± 4.2 | 95.8 ± 12 | 52.3 ± 2.3 | 87.4 ± 17 |
| UAGGAAAACAUGUAAACCAAA | 61.7 ± 7.3 | 87.8 ± 10 | 63.7 ± 4.7 | 88.1 ± 14 |
| UGAGCAUACAUGUAAACCAAA | 64.7 ± 6.8 | 61.3 ± 24 | 19.3 ± 0.59 | 46.9 ± 8.2 |
| UAGACAUACAUGUAAACCAAA | 83 ± 9 | 93.8 ± 13 | 35.7 ± 4.8 | 74 ± 3.5 |
| UCAUGGGACAUGUAAACCAAA | 17.3 ± 1.2 | 18.5 ± 1.3 | 3.2 ± 0.38 | 50.7 ± 15 |
| UGGCAUUACAUGUAAACCAAA | 43.3 ± 1.5 | 4.64 ± 0.33 | 25.8 ± 3.6 | 72.3 ± 4.3 |
| UUGAAGCACAUGUAAACCAAA | 33.3 ± 2.9 | 36.9 ± 3.1 | 22.6 ± 3.7 | 5.72 ± 3.2 |

| Sequence | cell viability (H460) [%] | cell viability (HeyA8) [%] | cell viability (M565) [%] | cell viability (3LL) [%] |
| --- | --- | --- | --- | --- |
| UGGCUGGACAUGUAAACCAAA | 7.78 ± 0.82 | 1.68 ± 1.7 | 8.51 ± 1.3 | 2.92 ± 0.2 |
| UGGGCGCACAUGUAAACCAAA | 17.8 ± 1.8 | 2.61 ± 0.7 | 22.7 ± 0.88 | 52.4 ± 12 |
| UAACAAUACAUGUAAACCAAA | 62.2 ± 8.8 | 92.9 ± 8 | 75.8 ± 5 | 91.9 ± 7.6 |
| UAGGACUACAUGUAAACCAAA | 50.2 ± 11 | 59.5 ± 6.1 | 30.3 ± 6.5 | 28.3 ± 8.2 |
| UUGCCAGACAUGUAAACCAAA | 37.6 ± 4.5 | 69.3 ± 3 | 51.9 ± 13 | 53.5 ± 5.7 |
| UAGACCCACAUGUAAACCAAA | 50.9 ± 3 | 55 ± 4.8 | 31.3 ± 1.8 | 33.3 ± 1.4 |
| UGCCAUAACAUGUAAACCAAA | 60.7 ± 8.1 | 85 ± 6.3 | 43.4 ± 6.1 | 83.9 ± 9.8 |
| UCUGCAUACAUGUAAACCAAA | 66.4 ± 4.3 | 82.6 ± 6.5 | 76.7 ± 12 | 92 ± 15 |
| UCAGAUGACAUGUAAACCAAA | 50.2 ± 3 | 88 ± 10 | 59.2 ± 2.8 | 96.7 ± 17 |
| UCCGUGUACAUGUAAACCAAA | 69.9 ± 9.8 | 59.3 ± 4.8 | 25.4 ± 6.4 | 80.5 ± 6.5 |
| UACGCAGACAUGUAAACCAAA | 107 ± 4.7 | 92.5 ± 11 | 79.1 ± 11 | 74.8 ± 4.7 |
| UCUACAGACAUGUAAACCAAA | 58.4 ± 6.7 | 80.7 ± 11 | 73.2 ± 14 | 92.6 ± 13 |
| UACGUAUACAUGUAAACCAAA | 80.2 ± 23 | 63.4 ± 7.5 | 89.4 ± 8 | 90 ± 10 |
| UCACGUGACAUGUAAACCAAA | 50.6 ± 1.5 | 85.5 ± 7.4 | 65.4 ± 8.5 | 102 ± 15 |
| UUCUGCUACAUGUAAACCAAA | 72.2 ± 14 | 63.1 ± 5.7 | 50.4 ± 4.4 | 6.11 ± 0.95 |
| UUAGCGAACAUGUAAACCAAA | 102 ± 8.4 | 94.8 ± 2.8 | 69.1 ± 2.7 | 83.9 ± 14 |
| UCGGAUCACAUGUAAACCAAA | 49.7 ± 3.6 | 22.2 ± 1.9 | 29.8 ± 2.6 | 73.1 ± 18 |
| UGAACGUACAUGUAAACCAAA | 80.4 ± 21 | 54.7 ± 1.4 | 22.1 ± 3.5 | 33.4 ± 7.9 |
| UUUUCAAACAUGUAAACCAAA | 65.8 ± 8 | 88.4 ± 2.6 | 98.4 ± 6.6 | 103 ± 8 |
| UGGUUCGACAUGUAAACCAAA | 52.6 ± 5.6 | 54.2 ± 4.8 | 29.4 ± 10 | 74.3 ± 1.7 |
| UAACACAACAUGUAAACCAAA | 49.1 ± 8.8 | 92.7 ± 15 | 67.34 ± 0.63 | 91.2 ± 3.8 |
| UAUUAUGACAUGUAAACCAAA | 104 ± 7.8 | 99.5 ± 13 | 99.3 ± 10 | 113 ± 18 |
